T1: Recombinant human B7-1/CD80 Fc chimera (Cat. 140-B1-100, R&D Systems) (human, UniProt P33681 35-242)
T1 construct: extracellular domain; also called B7-1 antigen; Fc part of the bought chimera not given; not described
T1 sequence (looked up): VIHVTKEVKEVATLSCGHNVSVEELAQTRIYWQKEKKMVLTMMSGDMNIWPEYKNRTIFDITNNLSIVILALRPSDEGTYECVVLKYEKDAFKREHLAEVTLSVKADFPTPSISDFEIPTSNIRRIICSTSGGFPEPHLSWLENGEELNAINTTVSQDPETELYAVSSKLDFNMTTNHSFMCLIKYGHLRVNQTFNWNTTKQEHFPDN


Target: T1, Recombinant human B7-1/CD80 Fc chimera …
Assay: direct bind ELISA, coated recombinant human B7-1/CD80 Fc chimera
Description: Enzyme Linked Immunosorbent Assays (ELISA) to screen for antibodies that bind a desired target antigen were performed as follows. High bind ELISA plates (Corning Costar #3369, Acton, Mass.) were coated with 100 μL/well of 10 μg/ml of desired target antigen (R&D Systems, Minneapolis, Minn.) or desired target antigen extra-cellular domain/FC fusion protein (R&D Systems, Minneapolis, Minn.) or monoclonal mouse anti-polyHistidine antibody (R&D Systems #MAB050, Minneapolis, Minn.) in phosphate buffered saline (10×PBS, Abbott Bioresearch Center, Media Prep#MPS-073, Worcester, Mass.) overnight at 4° C. Plates were washed four times with PBS containing 0.02% Tween 20. Plates were blocked by the addition of 300 μL/well blocking solution (non-fat dry milk powder, various retail suppliers, diluted to 2% in PBS) for ½ hour at room temperature. Plates were washed four times after blocking with PBS containing 0.02% Tween 20.
One hundred microliters of 10 ng/mL goat anti-human IgG-FC specific HRP conjugated antibody (Southern Biotech #2040-05, Birmingham, Ala.) was added to each well of the desired target antigen plate or anti-polyHistidine antibody/Histidine tagged desired target antigen plate. Alternatively, one hundred microliters of 10 ng/mL goat anti-human IgG-kappa light chain specific HRP conjugated antibody (Southern Biotech #2060-05 Birmingham, Ala.) was added to each well of the desired target antigen/FC fusion plate and incubated for 1 hour at room temperature. Plates were washed 4 times with PBS containing 0.02% Tween 20.
One hundred microliters of enhanced TMB solution (Neogen Corp. #308177, K Blue, Lexington, Ky.) was added to each well and incubated for 10 minutes at room temperature. The reaction was stopped by the addition of 50 μL 1N sulphuric acid. Plates were read spectrophotometrically at a wavelength of 450 nm

Row | EC50 [nM] | Binder
1 | 17.7 | RAB001 (other, rDVD-Ig with CTLA4 ECD on both heavy and light chains, N-terminal of the anti-PGE2 2B5.7 variable domains; also called RAB001H; RAB001L) VH: [about 120 residues omitted]STKGPEVQLVQSGAEVKKPGASVKVSCKASGYTFTKYWLGWVRQAPGQGLEWMGDIYPGYDYTHYNEKFKDRVTLTTDTSTSTAYMELRSLRSDDTAVYYCARSDGSSTYWGQGTLVTVSS VL: [about 120 residues omitted]VAAPDVLMTQTPLSLPVTPGEPASISCTSSQNIVHSNGNTYLEWYLQKPGQSPQLLIYKVSNRFSGVPDRFSGSGSGTDFTLKISRVEAEDVGVYYCFQVSHVPYTFGGGTKVEIKR
2 | 5.5 | RAB003 (other, rDVD-Ig with CTLA4 ECD on the light chain only; Human IgG1 constant region with L234A/L235A (EU) and human kappa constant region; also called RAB003H; RAB003L) VH: EVQLVQSGAEVKKPGASVKVSCKASGYTFTKYWLGWVRQAPGQGLEWMGDIYPGYDYTHYNEKFKDRVTLTTDTSTSTAYMELRSLRSDDTAVYYCARSDGSSTYWGQGTLVTVSS VL: [about 120 residues omitted]VAAPDVLMTQTPLSLPVTPGEPASISCTSSQNIVHSNGNTYLEWYLQKPGQSPQLLIYKVSNRFSGVPDRFSGSGSGTDFTLKISRVEAEDVGVYYCFQVSHVPYTFGGGTKVEIKR
3 | 5.4 | RAB002 (other, rDVD-Ig with CTLA4 ECD on the heavy chain only; Human IgG1 constant region with L234A/L235A (EU) and human kappa constant region; also called RAB002H; RAB002L) VH: [about 120 residues omitted]STKGPEVQLVQSGAEVKKPGASVKVSCKASGYTFTKYWLGWVRQAPGQGLEWMGDIYPGYDYTHYNEKFKDRVTLTTDTSTSTAYMELRSLRSDDTAVYYCARSDGSSTYWGQGTLVTVSS VL: DVLMTQTPLSLPVTPGEPASISCTSSQNIVHSNGNTYLEWYLQKPGQSPQLLIYKVSNRFSGVPDRFSGSGSGTDFTLKISRVEAEDVGVYYCFQVSHVPYTFGGGTKVEIKR
